The full ranking holds about 3,600 compounds; the median of “viability index relative to DMSO control” is about 0.81, and the lowest 2% start at about 0.13. This is one part of the list.
What follows are molecules tested on Plasmodium falciparum NF54 stage V gametocytes (assay: viability index relative to DMSO control (fraction); higher = less gametocyte killing). Conditions: 1.25 µM, incubation time: 72 h.
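Further: 384-well serum-free SaLSSA: MitoTracker Red CMXRos staining with saponin lysis, high-content imaging, treated-well particle count divided by plate-mean count of DMSO wells.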

Row | SMILES | viability index
1 | OC(COc1ccccc1CNCCN1CCCC1)CN1CCc2ccccc2C1 (centres undefined) | 0.971
2 | CCCCNC(=O)c1nn(-c2ccc(OC)cc2)c(=O)c2ccccc12 | 0.946
3 | COc1ccccc1Cn1c(SCC(=O)Nc2cccc(C(F)(F)F)c2)nc2ccc(Br)cc2c1=O | 0.723
4 | CC(=O)OC1CCC2(C)C(CCC3C2CCC2(C)C3CC(O)C2(O)C(C)=O)C1 (centres undefined) | 0.888
5 | CCN(CC)CCN1C(=O)c2ccccc2NC1c1ccc(Br)cc1 (centres undefined) | 0.638
6 | CCOc1ccc(NCc2ccc(O)c3ncccc23)cc1 | 0.949
7 | CCCNC1=C(N(C(C)=O)c2cccc(F)c2)C(=O)c2ccccc2C1=O | 0.0245
8 | CC(C)CCN(CCC(C)C)CC(O)Cn1c2ccc(Br)cc2c2cc(Br)ccc21 (centres undefined) | 0.71
9 | C=C(Cl)CSc1nnc(CCNC(=O)c2ccc(C)cc2)n1-c1ccc(F)cc1 | 1.12
10 | COc1ccc(C2=C(c3ccc(OC)cc3)C3(c4ccccc4)C(=O)C2(c2ccccc2)C2C(=O)N(c4ccc(C)cc4)C(=O)C23)cc1 (centres undefined) | 0.602
11 | COc1ccc(C2=CC(=Cc3cccc(OC)c3OC)C(=O)O2)cc1OC | 1.06
12 | CCCCN(CC)CCNC(=O)c1cc2c(-c3ccc(Cl)cc3)nn(C)c2s1 | 0.747
13 | COCCOC(=O)C1=C(C)NC2=C(C(=O)CCC2)C1c1ccc(OC)c(OC)c1OC (centres undefined) | 0.698
14 | COc1ccccc1Cn1c(SCc2ccc(Cl)cc2)nc2ccc(Br)cc2c1=O | 0.896
15 | CCc1cc(C(=O)OC)c(NC(=S)NC(C)c2ccncc2)s1 (centres undefined) | 0.635
16 | Cc1cccc(C2Sc3ccccc3N=C3c4ccccc4C(=O)C32)c1 (centres undefined) | 0.538
17 | CCN1CCCC(Nc2ccnc3cc4ccccc4cc23)C1 (centres undefined) | 0.514
18 | COC(=O)C1=C(OC)C(=O)OC12C=CC(=O)C=C2 | 0.144
19 | c1ccc2c(c1)CSc1sccc1C2=C1CCNCC1 | 0.706
20 | CCC(=O)N=c1sc2cc([N+](=O)[O-])ccc2n1CCOC | 0.868
21 | COCCCNc1nc2nonc2nc1N(C)C1CCOCC1 | 0.994
22 | CSc1ccc(NC(=O)N2CCCn3cccc3C2c2ccc(C(F)(F)F)cc2)cc1 (centres undefined) | 0.863
23 | CCc1cccc(NC(=O)CCCn2c(=O)c3cccn3c3ccccc32)c1 | 0.972
24 | Fc1cccc2sc(Nc3nc(-c4ccccn4)cs3)nc12 | 0.322

Row | SMILES | viability index
25 | Brc1ccc2[nH]c3nc4ccccc4nc3c2c1 | 0.699
26 | CCOC(=O)c1cnc2c(C)cccc2c1Nc1cccc(C(C)=O)c1 | 0.865
27 | O=C(C[n+]1cc(-c2ccccc2)n2c1CCC2)c1ccc(C2CCCCC2)cc1 | 0.78
28 | Cc1ccc2[nH]c3c(NCCCN(C)C)ncnc3c2c1 | 0.771
29 | CN(C)c1ccc2c(c1)Sc1cc(N(C)C)ccc1N2C(=O)c1ccccc1 | 1.13
30 | CCOc1ccc2nc(C)cc(Nc3ccc(OCc4ccccc4Cl)cc3)c2c1 | 0.595
31 | CCOC(=O)c1cn(CC)c2cc(N(C)CCc3ccc(OC)c(OC)c3)c(F)cc2c1=O | 0.903
32 | COCCOC(=O)C1=C(C)NC2=C(C(=O)CC(c3ccc(OC)c(OC)c3)C2)C1c1ccccc1C (centres undefined) | 0.873
33 | COc1ccc(NC(=O)CCCCCn2c(SCC(=O)NCCc3ccc(OC)c(OC)c3)nc3ccsc3c2=O)cc1 | 1.17
34 | c1ccc(CNc2nc(Nc3ccccc3)nc3ccccc23)cc1 | 0.596
35 | Cc1cc2cc(C3C(C#N)=C(N)Oc4c3ccc3ccccc43)c(Cl)nc2cc1Cl (centres undefined) | 0.545
36 | CCN(CC)c1ccc(C=Cc2ccc3ccc(OC)cc3[n+]2CC)cc1 | 0.668
37 | Clc1ccc(-c2csc3ncnc(NCc4ccncc4)c23)cc1 | 0.739
38 | Cc1cc(NC(=O)c2ccc(Br)cc2)no1 | 0.74
39 | CC(C)(C)NS(=O)(=O)c1cc(Cl)ccc1Cl | 0.943
40 | CCOC(=O)c1ccc(NC(=O)c2ccc3nc(NC(=O)c4ccc(C(=O)OC)cc4)sc3c2)cc1 | 0.914
41 | O=[N+]([O-])c1ccc(S(=O)(=O)N2CCN(C(=S)NCC3CCCO3)CC2)cc1 (centres undefined) | 0.471
42 | CCOC(=O)c1c(C)oc2c1c1c(c3ccccc32)OCN(C2CCCC2)C1 | 0.769
43 | CC1=C(C=CC(C)C=NNC(=O)c2ccncc2)C(C)(C)CCC1 (centres undefined) | 0.575
44 | COc1cc(C(=O)NC(c2ccccc2Cl)c2cc(Cl)c3cccnc3c2O)cc(OC)c1OC (centres undefined) | 1.16
45 | CCCCOc1ccc(C(=O)NCCOc2cccc(OC)c2)cc1 | 0.956
46 | COc1ccc(OCC(=O)Nc2c(C)n(C)n(-c3ccccc3)c2=O)cc1 | 1.04
47 | CCCN(CCC)C(=O)Cn1ccc(=N)c2ccccc21 | 0.558
48 | CC(C)C(=O)NC(Nc1ccc([N+](=O)[O-])cc1)C(Cl)(Cl)Cl (centres undefined) | 0.67

Row | SMILES | viability index
49 | O=C1C(Cc2ccccc2)N=C2c3ccccc3N=C(SCc3ccc(Cl)cc3)N12 (centres undefined) | 0.884
50 | CC1=C(C(=O)Nc2ccc(C)cc2C)C(c2cc(Br)ccc2F)n2ncc(C(=O)Nc3ccc(C)cc3)c2N1 (centres undefined) | 0.39
51 | Cc1ccc(NC(=O)c2sc3nc4c(c(-c5cccs5)c3c2N)CCCCC4)cc1 | 0.851
52 | CCOP1(=O)COc2ccccc2OC1 | 1.3
53 | CCN(CC)c1nc(S)nc(NC(C)(C)C)n1 | 0.779
54 | COc1ccc(N2C(N)=NC(N)=NC23CCCC3)cc1 | 0.607
55 | CCCOC(=O)CSc1nc(N)c(C#N)c(-c2ccco2)c1C#N | 0.634
56 | O=C(c1cc2n(n1)C(C(F)(F)F)CC(c1cccs1)N2)N1CCN(C(c2ccccc2)c2ccccc2)CC1 (centres undefined) | 0.691
57 | CN1CCN(C(=S)NC(=O)/C=C/c2ccc(F)cc2)CC1 | 0.882
58 | CC(C)(C)c1ccc(CNC(=O)C(Cc2ccc(O)cc2)c2ccccc2)cc1 (centres undefined) | 0.829
59 | CCCCNCCOCCOc1ccc(Br)cc1 | 0.577
60 | CCN(CC)CCCN(Cc1cc2ccc(OC)cc2[nH]c1=O)C(=S)NCc1ccccc1 | 0.642
61 | CC(C)(C)C1CCc2[nH]c3ccccc3c(=O)c2C1 (centres undefined) | 0.604
62 | Cc1cc(C)nc(Nc2nc(C)c3cc(C)c(C)cc3n2)n1 | 0.196
63 | O=C(NC(=S)Nc1ccc(-c2nc3ccccc3s2)cc1)c1ccc(S(=O)(=O)N2CCCC2)cc1 | 0.769
64 | Cc1ccnc(NC(c2ccc3ccccc3c2)c2ccc3cccnc3c2O)c1 (centres undefined) | 0.869
65 | O=C(CN1C(=O)c2ccccc2C1=O)Nc1cc(Cl)ccc1C(=O)O | 1.04
66 | Oc1ccc(CN2CCCCC2)nc1-c1ccccc1 | 0.746
67 | COC(=O)C1=C(C)NC(=Cc2cc(C)n(-c3ccccc3C(F)(F)F)c2C)C1=O | 0.591
68 | Nc1c(Cl)c(Cl)nc(C(Cl)(Cl)Cl)c1Cl | 0.661
69 | O=C(C=Cc1ccccc1)Nc1ccc(-c2nc3cc(NC(=O)C=Cc4ccccc4)ccc3[nH]2)cc1 | 0.11
70 | Cc1cc(-c2ccc(O)c(CN3CCCCCC3)c2)c2ccccc2n1 | 0.769
71 | CCOC(=O)C1CCN(C(=O)C(=O)Nc2ccc3nc4n(c(=O)c3c2)CCCCC4)CC1 | 0.703
72 | C=CCn1c(COc2ccccc2C)nnc1SCC(=O)O | 1.09

Row | SMILES | viability index
73 | CCc1cc(=O)n(C)c(SC(CC)C(=O)Nc2ccc(F)cc2)n1 (centres undefined) | 1.05
74 | COc1ccc(/C=C2\SC(=S)N(CC(=O)NNC(=O)c3ccncc3)C2=O)cc1 | 0.928
75 | Clc1ccc(Nc2nc(NCc3ccco3)c3ccccc3n2)cc1 | 0.78
76 | CCn1c(SCC(=O)Nc2ccc(OC)cc2)nc2ccsc2c1=O | 0.83
77 | O=C(NNc1nc(-c2cc3ccccc3oc2=O)cs1)c1ccccc1 | 0.891
78 | Cc1cn2c3ccccc3n(CCN3CCCC3)c2n1 | 0.632
79 | CN(C)c1cc[n+](CC(=O)Nc2ccc(Cl)cc2)cc1 | 0.785
80 | CCOC(=O)c1ccc2c(c1)[C@@H]1C=CC[C@@H]1[C@H](c1cccc(OC)c1OC)N2 | 0.776
81 | O=C(NCc1nnc(SCC2CCCO2)n1Cc1ccccc1)c1cccc2ccccc12 (centres undefined) | 0.894
82 | CCOC(=O)c1cnc(SCC(=O)Nc2cc(C)ccc2C)nc1N | 1.2
83 | COCCNC(=O)C(c1ccc(C)cc1)N(Cc1ccccc1)C(=O)CCC(=O)Nc1nccs1 (centres undefined) | 0.932
84 | Cc1ccn2c(NC(C)(C)CC(C)(C)C)c(-c3ccccc3OC(=O)c3ccc(Br)cc3)nc2c1 | 0.619
85 | CCN1CCN(Cc2c(O)ccc3c(=O)c(Oc4cccc(C)c4)c(C(F)(F)F)oc23)CC1 | 0.762
86 | Cc1sc2ncnc(Nc3ccncc3)c2c1C | 0.75
87 | Cc1nonc1C(=O)NN=Cc1ccc([N+](=O)[O-])o1 | 0.871
88 | O=C(c1cnn(-c2ccccc2)c1C(F)(F)F)N1CCN(c2ccnc3cc(Cl)ccc23)CC1 | 0.386
89 | COc1ccc(C=C2SC(Nc3ccc(F)cc3)=NC2=O)c(OC)c1 | 0.869
90 | Cc1oc2c(c1C(=O)N1CCC(C)CC1)C(=O)c1ccccc1C2=O | 0.587
91 | COc1ccc(C=NNc2nc3ccccc3[nH]2)cc1OC | 0.847
92 | C=CCSc1nc(N)c2c3c(sc2n1)CN(CCC)CC3 | 1.05
93 | CCOC(=O)C1=C(C)N=c2sc(=Cc3cc(Cl)ccc3O)c(=O)n2C1c1ccc(OC)c(OC)c1 (centres undefined) | 0.942
94 | COC(=O)c1ccc(C2C3=C(CC(c4ccc(C)cc4)CC3=O)Nc3ccccc3N2C(=O)c2cccs2)cc1 (centres undefined) | 0.571

From the supplement of paper PMC4723716
